Assay results: the supplement of paper PMC7125110
± gives the standard error. Variants at the background level are over-represented here.

B1: glmS ribozyme (parent)
chain: AUAAAAGCGCCAGAACUACAGAAAUGUAGUUGACGAGGAGGAGGUUUAUCGAAUUUUCGGCGGAUGCCUCCAAA

What was measured:
Conditions in all cases: with glucosamine-6-phosphate
glucosamine-6-phosphate [1] = variants of: B1; test: self-cleavage kobs at 40 uM GlcN6P; higher = faster cleavage; RNA array
How it was run: (§1)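 Tiles bearing barcoded ribozyme variants, transcribed in situ by E. coli RNA polymerase on sequenced MiSeq chips, were imaged over ~14 h at 37 °C using a hybridised Cy3 probe. Glucosamine-6-phosphate was supplied at 40 μM to 10 mM in HEPES/KCl/Mg(OAc)2 buffer. kobs came from one- or two-exponential decay fits to normalised per-tile medians, and weighted Michaelis–Menten fits then provided kcat and KM.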

glucosamine-6-phosphate [2] = variants of: B1; test: self-cleavage kobs at 640 uM GlcN6P; higher = faster cleavage; RNA array
How it was run: as §1

glucosamine-6-phosphate [3] = variants of: B1; test: self-cleavage kobs at 2500 uM GlcN6P; higher = faster cleavage; RNA array
How it was run: as §1

glucosamine-6-phosphate [4] = variants of: B1; test: self-cleavage kobs at 10000 uM GlcN6P; higher = faster cleavage; RNA array
How it was run: as §1

glucosamine-6-phosphate [5] = variants of: B1; test: self-cleavage kobs at 160 uM GlcN6P; higher = faster cleavage; RNA array
How it was run: as §1

Row | Variant | self-cleavage kobs at 40 uM GlcN6P (glucosamine-6-phosphate [1]) | self-cleavage kobs at 640 uM GlcN6P (glucosamine-6-phosphate [2]) | self-cleavage kobs at 2500 uM GlcN6P (glucosamine-6-phosphate [3]) | self-cleavage kobs at 10000 uM GlcN6P (glucosamine-6-phosphate [4]) | self-cleavage kobs at 160 uM GlcN6P (glucosamine-6-phosphate [5])
1 | U47A G66U | 0.00013 ± 2.5e-05 s⁻¹ | 0.00141 ± 0.00028 s⁻¹ | 0.00244 ± 0.00069 s⁻¹ | 0.00506 ± 0.00076 s⁻¹ | 
2 | U47A U56C C70G | < 1e-05 s⁻¹ |  |  |  | 
3 | U47C A64C | < 1e-05 s⁻¹ |  |  |  | < 1e-05 s⁻¹
4 | U47C A64G | 0.000131 ± 1.7e-05 s⁻¹ | 0.00115 ± 0.00027 s⁻¹ | 0.0019 ± 0.00068 s⁻¹ | 0.00499 ± 0.00066 s⁻¹ | 0.000324 ± 9e-05 s⁻¹
5 | U47C G60U | < 1e-05 s⁻¹ |  |  |  | 
6 | U47C U56G | 7.97e-05 ± 1.3e-05 s⁻¹ | 0.000708 ± 8.7e-05 s⁻¹ | 0.00108 ± 0.00025 s⁻¹ | 0.00243 ± 0.0003 s⁻¹ | 0.000196 ± 4e-05 s⁻¹
7 | U47C U65C | < 1e-05 s⁻¹ |  |  | < 1e-05 s⁻¹ | 
8 | U47C U65G | 4.89e-05 ± 1.1e-05 s⁻¹ | 0.000565 ± 0.00011 s⁻¹ | 0.00189 ± 0.00047 s⁻¹ | 0.00312 ± 0.0006 s⁻¹ | 
9 | U47G A64G C70G | < 1e-05 s⁻¹ |  |  |  | 
10 | U47G A64U | < 1e-05 s⁻¹ |  |  |  | 
11 | U47G C50G G59A | < 1e-05 s⁻¹ |  |  |  | 
12 | U47G C61U | < 1e-05 s⁻¹ |  |  |  | 
13 | U47G G60A | < 1e-05 s⁻¹ |  | < 1e-05 s⁻¹ |  | 
14 | U47G G60C | < 1e-05 s⁻¹ |  |  | < 1e-05 s⁻¹ | < 1e-05 s⁻¹
15 | U47G G62C C68U C71U | < 1e-05 s⁻¹ |  |  |  | 
16 | U47G U54A | 0.000306 ± 4.7e-05 s⁻¹ | 0.00157 ± 0.00052 s⁻¹ |  |  | 
17 | A48C A52U C70A | < 1e-05 s⁻¹ |  |  |  | 
18 | A48C A52U C70U | < 1e-05 s⁻¹ |  |  | < 1e-05 s⁻¹ | 
19 | A48C A64G | < 1e-05 s⁻¹ |  |  | 6.31e-05 ± 1.3e-05 s⁻¹ | < 1e-05 s⁻¹

Row | Variant | self-cleavage kobs at 40 uM GlcN6P (glucosamine-6-phosphate [1]) | self-cleavage kobs at 640 uM GlcN6P (glucosamine-6-phosphate [2]) | self-cleavage kobs at 2500 uM GlcN6P (glucosamine-6-phosphate [3]) | self-cleavage kobs at 10000 uM GlcN6P (glucosamine-6-phosphate [4]) | self-cleavage kobs at 160 uM GlcN6P (glucosamine-6-phosphate [5])
20 | A48C C58A | < 1e-05 s⁻¹ | < 1e-05 s⁻¹ |  |  | < 1e-05 s⁻¹
21 | A48C C61U | < 1e-05 s⁻¹ | < 1e-05 s⁻¹ | < 1e-05 s⁻¹ | < 1e-05 s⁻¹ | < 1e-05 s⁻¹
22 | A48C C67G | < 1e-05 s⁻¹ |  |  |  | < 1e-05 s⁻¹
23 | A48C C71G | < 1e-05 s⁻¹ |  |  |  | < 1e-05 s⁻¹
24 | A48C G51U | < 1e-05 s⁻¹ |  |  |  | 
25 | A48C U49A C50A U65A C67G | < 1e-05 s⁻¹ |  |  |  | 
26 | A48C U49C | < 1e-05 s⁻¹ |  | < 1e-05 s⁻¹ | < 1e-05 s⁻¹ | 
27 | A48C U49G G62A | < 1e-05 s⁻¹ |  |  |  | 
28 | A48C U69G C70U | < 1e-05 s⁻¹ |  | < 1e-05 s⁻¹ | < 1e-05 s⁻¹ | 
29 | A48G A52C | < 1e-05 s⁻¹ | < 1e-05 s⁻¹ |  |  | < 1e-05 s⁻¹
30 | A48G C50G C61G | 0.000172 ± 6.6e-05 s⁻¹ |  |  |  | 
31 | A48G C50U C70U | < 1e-05 s⁻¹ |  |  |  | 
32 | A48G C61U G66C C70U | < 1e-05 s⁻¹ |  |  |  | 
33 | A48G C61U G66U U69G | < 1e-05 s⁻¹ |  |  |  | 
34 | A48G C68A | < 1e-05 s⁻¹ |  |  |  | 
35 | A48G C68G | 4.65e-05 ± 1.2e-05 s⁻¹ | 7.32e-05 ± 1.6e-05 s⁻¹ | 5.41e-05 ± 1.2e-05 s⁻¹ | 5.84e-05 ± 8.1e-06 s⁻¹ | 
36 | A48G G60A | < 1e-05 s⁻¹ | < 1e-05 s⁻¹ | < 1e-05 s⁻¹ | < 1e-05 s⁻¹ | < 1e-05 s⁻¹
37 | A48G G60U | < 1e-05 s⁻¹ | < 1e-05 s⁻¹ | < 1e-05 s⁻¹ | < 1e-05 s⁻¹ | < 1e-05 s⁻¹
38 | A48G G62A | < 1e-05 s⁻¹ | < 1e-05 s⁻¹ |  |  | < 1e-05 s⁻¹

Row | Variant | self-cleavage kobs at 40 uM GlcN6P (glucosamine-6-phosphate [1]) | self-cleavage kobs at 640 uM GlcN6P (glucosamine-6-phosphate [2]) | self-cleavage kobs at 2500 uM GlcN6P (glucosamine-6-phosphate [3]) | self-cleavage kobs at 10000 uM GlcN6P (glucosamine-6-phosphate [4]) | self-cleavage kobs at 160 uM GlcN6P (glucosamine-6-phosphate [5])
39 | A48G G63C | < 1e-05 s⁻¹ |  | < 1e-05 s⁻¹ | < 1e-05 s⁻¹ | < 1e-05 s⁻¹
40 | A48G G66A | < 1e-05 s⁻¹ |  |  |  | 
41 | A48G U49A G51A | < 1e-05 s⁻¹ |  |  |  | 
42 | A48G U49C | < 1e-05 s⁻¹ |  |  |  | 
43 | A48G U54A C61U | < 1e-05 s⁻¹ |  |  |  | 
44 | A48G U57C | < 1e-05 s⁻¹ |  |  |  | < 1e-05 s⁻¹
45 | A48U A52C U65A | < 1e-05 s⁻¹ |  |  | < 1e-05 s⁻¹ | 
46 | A48U A52G U55A A64G | < 1e-05 s⁻¹ |  |  |  | 
47 | A48U A53U G60A G66U | < 1e-05 s⁻¹ |  |  |  | 
48 | A48U C50U C58A | < 1e-05 s⁻¹ | < 1e-05 s⁻¹ |  |  | < 1e-05 s⁻¹
49 | A48U C58A | < 1e-05 s⁻¹ | < 1e-05 s⁻¹ | < 1e-05 s⁻¹ |  | < 1e-05 s⁻¹
50 | A48U C61U C71U | < 1e-05 s⁻¹ |  |  | < 1e-05 s⁻¹ | 
51 | A48U G51A C68G | < 1e-05 s⁻¹ |  |  | < 1e-05 s⁻¹ | 
52 | A48U G59A | < 1e-05 s⁻¹ | < 1e-05 s⁻¹ | < 1e-05 s⁻¹ | < 1e-05 s⁻¹ | < 1e-05 s⁻¹
53 | A48U G59U | < 1e-05 s⁻¹ | < 1e-05 s⁻¹ |  | < 1e-05 s⁻¹ | < 1e-05 s⁻¹
54 | A48U G60U C70A | < 1e-05 s⁻¹ |  |  |  | 
55 | A48U G62C | < 1e-05 s⁻¹ | < 1e-05 s⁻¹ | < 1e-05 s⁻¹ | < 1e-05 s⁻¹ | < 1e-05 s⁻¹
56 | A48U G62U | < 1e-05 s⁻¹ |  |  |  | 
